Measurements: PubChem BioAssay AID743279 (National Center for Advancing Translational Sciences (NCATS), 2014)
About 17,000 (4.7%) of roughly 360,000 compounds were called active. Inconclusive means that the source gave no clear call. Such entries were picked first, then a sample of the others. Cut-off read from the data, not from the text of the source: active = activity change below about -50%; inconclusive = mostly about -30% to -49%; inactive = weaker than that.

test: qHTS for Inhibitors of Inflammasome Signaling: IL-1-beta AlphaLISA Primary Screen; details: THP-1 LPS/ATP IL-1B secretion, 16 h; at 57.5 µM, hits give low values
How it was run: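 THP-1 cells pretreated 1 hr with compounds (up to 57.5 uM final), then stimulated with LPS (250 ng/mL final) plus ATP (1.25 mM final); secreted IL-1B measured by AlphaLISA after 16 hr, decreased signal indicating inhibition.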
% is set by controls: 0 for no effect and ±100 for the full control effect.

Compound | activity change
Cc1ccc(S(=O)(=O)NCc2ccc(C(=O)NCCCN3CCC(Cc4ccccc4)CC3)cc2)cc1 | active: -64.6%
COc1cccc(-c2cc(C(=O)N3CCCCCC3)no2)c1 | inconclusive: -34.3%
Cc1ccccc1SCCNC(=O)c1ccccc1Br | inconclusive: -35.9%
O=C1CN(C(=O)c2ccccc2)c2ccccc2N1 | inactive: -7.02%
CC/C(=N/NC(=O)c1ccc(Br)o1)c1ccc(Cl)cc1 | inactive: -3.74%
COC(=O)[C@]12CCCCC=C1N(Cc1ccc(Cl)cc1Cl)C(=O)[C@H](CC(=O)N1CCCC1)C2 | inactive: -0.216%
Cc1ccc(C(=O)Nc2ccc(C(=O)N/N=C/c3ccc(C)o3)cc2)cc1 | inconclusive: -47.7%
COC(=O)c1cc(-c2cccc([N+](=O)[O-])c2)c2c(=O)n(C)c(=O)n(C)c2n1 | inactive: 4.57%
C=CCc1cccc(CNc2nc3ccccc3n2C)c1O | inconclusive: -31%
COc1ccc(C2=NN(C(=O)COc3ncnc4ccccc34)C(c3ccco3)C2)cc1 (stereo not given) | inconclusive: -32.1%
O=C(Nc1ccc2nc(-c3ccc(Br)o3)[nH]c2c1)c1ccco1 | inactive: -17.5%
CN(C)c1ccc(NC(=O)c2cccc(C(=O)Nc3ccc(N(C)C)cc3)n2)cc1 | active: -55.9%
COc1ccc(N(CC(=O)Nc2ccccc2C(F)(F)F)C2=NC3CS(=O)(=O)CC3S2)cc1 (stereo not given) | active: -59.6%
COc1cc(/C=C2\SC(=O)N(Cc3ccc(F)cc3)C2=O)cc([N+](=O)[O-])c1O | inactive: 43.9%
O=C(Nc1ccncc1)Nc1cc(Cl)ccc1Cl | active: -54%
CCn1cc(CNC(=O)c2ccc3nc(Cc4ccccc4F)oc3c2)cn1 | inconclusive: -32%
CC(C)(C)C(=O)N1CCN(c2c(Cl)cccc2[N+](=O)[O-])CC1 | inconclusive: -40.2%
COCCN=c1scc(-c2cc(OC)ccc2OC)n1/N=C/c1c[nH]c2ccccc12 | active: -50.2%
O=C(Nc1ccc(F)c(Cl)c1)C1Cc2c(-c3ccc4c(c3)OCO4)ccnc2O1 (stereo not given) | inconclusive: -36.1%
C[C@@H]1CN([C@@H](C)CO)S(=O)(=O)c2ccc(C#Cc3cccc(F)c3)cc2O[C@H]1CN(C)S(=O)(=O)c1cn(C)cn1 | inconclusive: -46.4%
COCC(C)N=C1NN=C(c2c[nH]c3ccccc23)CS1 (stereo not given) | active: -79.7%
C[C@H](CO)N1C[C@H](C)[C@@H](CN(C)C(=O)c2ccc3c(c2)OCO3)Oc2cc(/C=C/c3ccccc3)ccc2S1(=O)=O | inconclusive: -34.8%

Compound | activity change
Cn1c(=O)[nH]c(=O)c2c1nc(N1CCCC1)n2CCCSc1nnnn1-c1ccccc1 | inactive: 0.0211%
COc1cc(-c2cc(C(=O)Nc3ccc(S(N)(=O)=O)cc3)c3ccccc3n2)cc(OC)c1OC | inconclusive: -43.7%
Cc1ccc(C)c(N/C(N)=N/c2nc(C)cc(C)n2)c1 | active: -111%
COc1cccc(COc2ccc3ccc(=O)oc3c2)c1 | inconclusive: -30.9%
COc1ccc(-c2[nH]ncc2/C=C(/C#N)C(=O)NC2CCCCC2)cc1 | inconclusive: -49.7%
CC(C)c1cccc(C2=CC(=O)C[C@H](c3ccc4c(c3)OCO4)C2)c1 | inactive: -8.94%
O=C(CC1C(=O)NCCN1Cc1cccc(C(F)(F)F)c1)NC1CCCCCC1 (stereo not given) | inactive: -13%
O=C(/C(=N/N=C/c1ccc(O)c(O)c1O)c1ccccc1)c1ccccc1 | inactive: -5.45%
COc1ccc(NC(=O)C2CCN(C(=O)NC3CCCCC3)CC2)c(OC)c1 | inactive: -6.41%
C=CCN1CCc2cc(O)c(O)cc2C(c2ccccc2)C1 (stereo not given) | inactive: 4.36%
CCN1CCN(c2nc(-c3ccccc3)nc3ccccc23)CC1 | active: -64.6%
C[C@H](CO)N1C[C@H](C)[C@@H](CN(C)C(=O)Nc2ccc(C(F)(F)F)cc2)Oc2c(NC(=O)Nc3ccc4c(c3)OCO4)cccc2C1=O | inconclusive: -30.8%
COc1ccc(NC(C)=O)cc1S(=O)(=O)N1CCN(C(=O)c2ccccc2F)CC1 | inconclusive: -32.2%
CCOC(=O)c1cc(C)n(CCc2ccccc2)c1C | inconclusive: -41.5%
CC(=O)NC(=O)COC(=O)/C=C/c1c(C)nn(Cc2c(Cl)cccc2Cl)c1Cl | inactive: 28.1%
Cc1cc(C)c2c(-n3cccc3)c(C(=O)O)sc2n1 | inactive: 0%
Cc1ccc(Cl)cc1N1CCN(C(=O)c2ccc(NC3=NC4CS(=O)(=O)CC4S3)cc2)CC1 (stereo not given) | inconclusive: -48.6%
COc1ccc2c(c1)c(/C=C/c1cc[n+](C)cc1)cn2C | inactive: -2.81%
CC(C)(C)C(=O)N1CCN(c2nc3ccc(Cl)cc3s2)CC1 | inconclusive: -42.5%
N#CC1=C2SCC(O)(c3ccccc3)N2C(=O)CC1c1cccs1 (stereo not given) | inconclusive: -46.6%
Cn1c(=O)n(C)c2cc([N+](=O)[O-])c(N3CCN(C(=O)c4ccccc4Br)CC3)cc21 | inconclusive: -44.3%
CCN(CC(=O)Nc1cc(Cl)ccc1C)C(=O)c1cc([N+](=O)[O-])ccc1N1CCOCC1 | inactive: -0.256%

Compound | activity change
CCC(CC)C(=O)c1c[nH]c(C(=O)NCc2ccncc2)c1 | inactive: 13.6%
Cc1noc(C)c1COC(=O)c1cc(=O)[nH]c2ccccc12 | inactive: -3.99%
CCN(CC)C(=O)CSc1nc2cc(S(=O)(=O)N3CCOCC3)ccc2n1CC | inactive: 0.481%
CCOC(=S)SCC(=O)Nc1nc(-c2ccccc2)cs1 | inconclusive: -49.3%
CCCCN(CC)CCNC(=O)c1ccc2c(Cl)c3c(nc2c1)CCC3 | inconclusive: -45.1%
O=C(N/N=C\C=C\c1ccc2c(c1)OCO2)C1COc2cc3ccccc3cc2O1 (stereo not given) | inconclusive: -31.8%
Cc1ccc(C(C)C)c(OCC(O)CN(C)Cc2ccccc2)c1 (stereo not given) | active: -85.2%
Cc1ccsc1C(=O)NCCC(c1ccccc1)c1ccccc1 | inconclusive: -43.5%
Cc1ccn2c(Nc3ccc4c(c3)OCO4)c(-c3ccccn3)nc2c1 | active: -98.4%
Cc1cscc1-c1cc2nc(NCCCN(C)C)n(C)c(=O)c2s1 | inconclusive: -31.1%
Cc1ccc(NC2=NC3(CCCCC3)N=C(N)N2)c(C)c1 | inconclusive: -31%
CN(CC(=O)NC(=O)NC1CCCCC1)CC(=O)Nc1ccc(Cl)cc1 | inconclusive: -31.4%
CCOc1cccc(Nc2ccc([N+](=O)[O-])cn2)c1 | inconclusive: -43.4%
CCOC(=O)[C@]12CCC=C1N(Cc1ccc(Cl)cc1Cl)C(=O)[C@H](CC(=O)N1CCN(C(=O)c3ccco3)CC1)C2 | inconclusive: -40.8%
COc1ccccc1CN1C(=NC(=O)C2CCCCC2)SC2CS(=O)(=O)CC21 (stereo not given) | inactive: -17.4%
COc1ccc(S(=O)(=O)N2CCC(NC(=O)c3ccccc3)CC2)cc1 | inconclusive: -34.2%
COc1ccc(C(=O)CN2CC(C)SC2=Nc2ccc(Cl)cc2)cc1 (stereo not given) | inactive: -5.19%
CC(=O)Nc1ccc(-c2ccnc3c2CC(C)(C(=O)Nc2ccc(F)c(Cl)c2)O3)cc1 (stereo not given) | active: -62.4%
CC(C(=O)NC1CCCC1)N1CCN(S(=O)(=O)c2ccccc2Cl)CC1 (stereo not given) | inactive: -3.55%
CCOc1ccccc1-n1c(SCC(=O)Nc2nccs2)nnc1-c1ccoc1C | inconclusive: -44.2%
CC(CNc1nc2ccc(Cl)cc2n2cnnc12)c1ccccc1 (stereo not given) | inactive: 2.65%
Cc1ccccc1NC(=S)N(Cc1ccccn1)Cc1ccccc1Cl | inconclusive: -42.5%

Compound | activity change
COc1ccccc1NC(=O)Nc1nc(C(C)(C)C)cs1 | active: -83.1%
COc1ccccc1N(C)S(=O)(=O)c1ccc(C(=O)Nc2cccc(Br)c2)cc1 | active: -59.9%
OCCN1CCN(CC/C=C2/c3ccccc3Sc3ccc(Cl)cc32)CC1 | inconclusive: -38.7%
O=C1COc2ccc(C(=O)COC(=O)c3cnc(Cl)c(Cl)c3)cc2N1 | inconclusive: -48.8%
CCCNC(=O)C1(C)CCCN(CCC(=O)c2ccccc2)C1 (stereo not given) | inconclusive: -32.5%
O=c1[nH]c(CSc2nc3ccccc3[nH]2)nc2c1cnn2-c1ccccc1 | active: -66.7%
CN1CCN(c2ccc(NC(=O)COc3ccc(Cl)cc3Cl)cc2)CC1 | inconclusive: -44.9%
FC(F)(F)c1ccc(Cl)c(-n2c(Cc3cccs3)n[nH]c2=S)c1 | inactive: 3.81%
COc1cccc(NC(=O)Nc2ccc3c(c2)N(C)C(=O)CS3)c1 | inconclusive: -30.8%
CCCn1nnc2sc3c(c2c1=O)CCC(C)C3 (stereo not given) | inconclusive: -32.9%
Cc1ccc(C)c(NC(=O)c2cc(-c3cc(C)c(C)cc3O)n[nH]2)c1 | inconclusive: -33%
COc1ccc(C(=O)COC(=O)[C@H](C)NS(=O)(=O)c2ccc(NC(C)=O)cc2)cc1OC | active: -92.8%
O=S(=O)(/C=C/c1ccccc1)Nc1ccc(F)cc1 | inconclusive: -35.9%
Cc1ccc2sc(N(CCCN(C)C)C(=O)c3ccc(S(=O)(=O)N(C)Cc4ccccc4)cc3)nc2c1C | active: -92.6%
CCC1(C)Cc2c(sc3[nH]c(=O)[nH]c(=O)c23)CS1 (stereo not given) | inactive: 0%
CCOc1ccccc1C(=O)NCC(=O)NNC(=O)c1csc(N2CCOCC2)n1 | inactive: 38.7%
COCCCn1c(SCc2ccc(OC)cc2)nc2cc(OC)c(OC)cc2c1=N | inactive: 42.4%
O=Cc1ccccc1OS(=O)(=O)c1ccccc1 | inconclusive: -33%
COc1ccc(CN2CC[C@H]3C=CC[C@@H](C(=O)Nc4ccc(Cl)c(C(F)(F)F)c4)[C@H]3C2=O)cc1OC | inconclusive: -47.5%
